This note sets out measurements from PMC7819943, “Rice protein-binding microarrays: a tool to detect cis-acting elements near promoter regions in rice”.

This is one part of the list.

This assay has as its target T1, OsWOX13 (Oryza sativa, UniProt Q5QMM3 1-267).
T1 sequence: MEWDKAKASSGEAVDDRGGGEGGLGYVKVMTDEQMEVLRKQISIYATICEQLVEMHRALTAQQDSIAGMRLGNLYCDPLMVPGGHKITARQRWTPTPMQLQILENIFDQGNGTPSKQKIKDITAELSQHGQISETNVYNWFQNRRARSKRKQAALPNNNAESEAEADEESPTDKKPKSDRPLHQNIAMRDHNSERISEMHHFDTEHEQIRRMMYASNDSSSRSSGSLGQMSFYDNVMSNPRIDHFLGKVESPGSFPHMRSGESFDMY
Briefly: protein-binding microarray (RPBM); PBS, 2% BSA, 51.3 ng/ul salmon testes DNA, 50 uM zinc acetate, 200 nM TF, 25 C, 1 h; high values mean tight binding. To be noted: protein: recombinant; tags: N-terminal polyhistidine and DsRed monomer fusion (pET32a); label: CyDye5-dUTP incorporated in the synthesized complementary strand; 3' TTTTT single-stranded linker to array surface; dsDNA, one strand shown. The method in brief: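 Transcription factors were each fused at the N-terminus to a polyhistidine tag plus DsRed and expressed in E. coli BL21-CodonPlus before Ni–NTA purification. Binding to a double-stranded custom Agilent array was carried out with 200 nM protein at 25 °C for 1 h in PBS, 2% BSA, salmon testes DNA and 50 µM zinc acetate. The binding signal is per-feature fluorescence intensity, in arbitrary units, on an Axon 4000B scanner.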
Take “TTACGTCCTAATTAAGTGTCAACAAATGCTGCATTATTTACGGAGTCACCTAGTGCAG”: the binding signal was 4500 fluorescence intensity (a.u.). On to “GATGAATGGACGGACAGGATTGGTTTGAGTTGTCGTGTTTCGGAGTCACCTAGTGCAG”, for which the binding signal was 7430 fluorescence intensity (a.u.). Then “GTGTGCATGATTTTGTCGTTTGTTTTATGCATGCTGCGTTCGGAGTCACCTAGTGCAG”, with 4770 fluorescence intensity (a.u.). For the sequence “ACAAAACAGTGATTTTGTAGTAGCGATTTCATGTTTGTTCCGGAGTCACCTAGTGCAG”, the binding signal was 3280 fluorescence intensity (a.u.). For “TCTAATTATCAATCACCTATCAAGACAAATCGGACGCTACCGGAGTCACCTAGTGCAG”, the binding signal was 43900 fluorescence intensity (a.u.).

“GACCTGATTAAGAGCTAGCAGCCAATCTCTTCCCCTTCTCCGGAGTCACCTAGTGCAG”: the binding signal is 5450 fluorescence intensity (a.u.). Then “TTAAATGAATGATAAGTATAATTACTTATCCTTAGTCTATCGGAGTCACCTAGTGCAG”, with 18100 fluorescence intensity (a.u.); and “CCATACATAAATAATCAATCTATTTCTATTTGTGTAACTTCGGAGTCACCTAGTGCAG”, with 11100 fluorescence intensity (a.u.). Turning to “TTCTCTAGCCCTAAATATGCCGAAGAATATTCCATGTCTCCGGAGTCACCTAGTGCAG”, the binding signal was 64900 fluorescence intensity (a.u.).

For “AGTTGATTGAGAAAGGCAATGCCACCAGAAGTACCGGTACCGGAGTCACCTAGTGCAG”, the binding signal is 21700 fluorescence intensity (a.u.). As for “TGACATGTAAATTAACATAGAGATATTTCTTAATTTGACACGGAGTCACCTAGTGCAG”, the binding signal was 10300 fluorescence intensity (a.u.). Then “ATTAATCTATCATTAGCACATATTTACTGTAGCACCACATCGGAGTCACCTAGTGCAG”, with 7510 fluorescence intensity (a.u.); and “ATGATATTTGTATAATTATTTTGAATAAGACGGATAGTCACGGAGTCACCTAGTGCAG”, with 4760 fluorescence intensity (a.u.).

Turning to “TGGCTCTGATCCATCAATTAGGATTTGCCAGTGCCTCTCCCGGAGTCACCTAGTGCAG”, the binding signal is 5390 fluorescence intensity (a.u.). Then “CTGGAACAAATTGGTTAGATCACCACGAAATACAACACAACGGAGTCACCTAGTGCAG”, with 11700 fluorescence intensity (a.u.); and “GGTAAATTTTATGTAAATTAACCCGGGTATTATGGTTCTTCGGAGTCACCTAGTGCAG”, with 23200 fluorescence intensity (a.u.).

“TCTAAATTTTATGTCCATTTACACGCTACAGTTTAATTTACGGAGTCACCTAGTGCAG”: the binding signal was 5210 fluorescence intensity (a.u.). In the case of “GATTGTGATTGGTTGGAAAGAGAATATTGGTCGATAAGTTCGGAGTCACCTAGTGCAG”, the binding signal was 30700 fluorescence intensity (a.u.). The figure for “GGGATTAGGATTGAGAAATGAATGAATGGTTAGGATTAAACGGAGTCACCTAGTGCAG” is 8690 fluorescence intensity (a.u.); for “TTGGGTTGGGTTGGGTGGTCCATTCTGTACGGTGCGCCGGCGGAGTCACCTAGTGCAG” it is 3920 fluorescence intensity (a.u.). Then “GCGCAGATTGGGGCGGTACCGCTGGGGTAAAACCGTATTTCGGAGTCACCTAGTGCAG”, with 3730 fluorescence intensity (a.u.). As to “GCTGTCAATCTGCTCTGTTCGTTAGGTTTGTACGATCCTTCGGAGTCACCTAGTGCAG”, the binding signal was 3370 fluorescence intensity (a.u.).

For “CCTCGCAAATTAAAGGAGTCAATCTCTTGAAGGTATCTTCCGGAGTCACCTAGTGCAG”, the binding signal was 7710 fluorescence intensity (a.u.). “CCTTATTAGTTCAATTATGCATGGAAAATCATGGCTGCACCGGAGTCACCTAGTGCAG”: the binding signal is 7340 fluorescence intensity (a.u.). Turning to “TTGGGAAACGGAGGAAGTAATTAATTAGTCTTTGTGGAAACGGAGTCACCTAGTGCAG”, the binding signal is 3790 fluorescence intensity (a.u.).

Turning to “TCCTGAATTGGGCCTTAAATTAGGAATTCAATTGGAGGCCCGGAGTCACCTAGTGCAG”, the binding signal is 10000 fluorescence intensity (a.u.).

Turning to “ACTTGATGGAGAGGATGATTGTATTGGGTGGTCTAAGATTCGGAGTCACCTAGTGCAG”, the binding signal was 31500 fluorescence intensity (a.u.).

“GGTTAAATTGCCATGTAAGCGCCATGTCAGTGCGTGAGACCGGAGTCACCTAGTGCAG”: the binding signal was 15200 fluorescence intensity (a.u.). The figure for “TTGTAAATTGTTACCCATCTATCATCCAATCAAATTTCAGCGGAGTCACCTAGTGCAG” is 20400 fluorescence intensity (a.u.). The figure for “AATAATTTCTTTGTAACATAAAACCTCAGGATTATAAGTTCGGAGTCACCTAGTGCAG” is 19900 fluorescence intensity (a.u.); for “GCTTACAAGTCACTGTTAAATTTTAAAATTTAAAGCTTATCGGAGTCACCTAGTGCAG” it is 4350 fluorescence intensity (a.u.); for “TTATCAATTTAACTATCTAATGGTTACTTCAGTCTGACGCCGGAGTCACCTAGTGCAG” it is 30700 fluorescence intensity (a.u.).

Turning to “ACCAAATAGGCTAATTAGCAGTCCTAATGACATATTATAGCGGAGTCACCTAGTGCAG”, the binding signal was 32600 fluorescence intensity (a.u.). The figure for “CAACTTGCAAATTGCAGAAGTTTCTTGTCATGATTGAAATCGGAGTCACCTAGTGCAG” is 4520 fluorescence intensity (a.u.); for “ACTAGATTGGCACTAGATTAGCAAATGTAATCTAATCTAGCGGAGTCACCTAGTGCAG” it is 46600 fluorescence intensity (a.u.); for “GTGTCCTCAATTGAATTGACTCAATTCAATGGCTACCATACGGAGTCACCTAGTGCAG” it is 6900 fluorescence intensity (a.u.).

As for “ATTGATGAGCTTACTTTTACTAATTTGTTGGTCGCAACAACGGAGTCACCTAGTGCAG”, the binding signal is 10600 fluorescence intensity (a.u.). The figure for “AGAACTAGCATGATTTAGGACTAATTAGTAAATACTATTACGGAGTCACCTAGTGCAG” is 13200 fluorescence intensity (a.u.); for “CTAGATAGCTGAAATTGATGGATTTGGATAATCTAGATAGCGGAGTCACCTAGTGCAG” it is 33800 fluorescence intensity (a.u.). Then “AGGTTTGTCAGGTCAATCAAAACCCGCCGATTGTACTACACGGAGTCACCTAGTGCAG”, with 8470 fluorescence intensity (a.u.); and “TTATAATTAATTTTCAAACATCCGATGTGATAGGGACTTACGGAGTCACCTAGTGCAG”, with 36000 fluorescence intensity (a.u.); and “CTGTTGGCAATAATTAATTATATAATTACTACTACTTACTCGGAGTCACCTAGTGCAG”, with 26700 fluorescence intensity (a.u.).
